Test results published in PMC4336329 (PLoS ONE, 2015).
In all, about 310,000 compounds went through this assay and about 2,200 (0.71%) showed an effect of 50% or more. Effects have a minus sign here. The list shows a part of the results.

Each molecule was assayed against human ether-à-go-go-related gene (hERG) potassium channel (human, UniProt Q12809) (assay: primary screen, population patch clamp on CHO cells stably expressing hERG).
human ether-à-go-go-related gene (hERG) potassium channel, sequence (Q12809 whole entry, looked up): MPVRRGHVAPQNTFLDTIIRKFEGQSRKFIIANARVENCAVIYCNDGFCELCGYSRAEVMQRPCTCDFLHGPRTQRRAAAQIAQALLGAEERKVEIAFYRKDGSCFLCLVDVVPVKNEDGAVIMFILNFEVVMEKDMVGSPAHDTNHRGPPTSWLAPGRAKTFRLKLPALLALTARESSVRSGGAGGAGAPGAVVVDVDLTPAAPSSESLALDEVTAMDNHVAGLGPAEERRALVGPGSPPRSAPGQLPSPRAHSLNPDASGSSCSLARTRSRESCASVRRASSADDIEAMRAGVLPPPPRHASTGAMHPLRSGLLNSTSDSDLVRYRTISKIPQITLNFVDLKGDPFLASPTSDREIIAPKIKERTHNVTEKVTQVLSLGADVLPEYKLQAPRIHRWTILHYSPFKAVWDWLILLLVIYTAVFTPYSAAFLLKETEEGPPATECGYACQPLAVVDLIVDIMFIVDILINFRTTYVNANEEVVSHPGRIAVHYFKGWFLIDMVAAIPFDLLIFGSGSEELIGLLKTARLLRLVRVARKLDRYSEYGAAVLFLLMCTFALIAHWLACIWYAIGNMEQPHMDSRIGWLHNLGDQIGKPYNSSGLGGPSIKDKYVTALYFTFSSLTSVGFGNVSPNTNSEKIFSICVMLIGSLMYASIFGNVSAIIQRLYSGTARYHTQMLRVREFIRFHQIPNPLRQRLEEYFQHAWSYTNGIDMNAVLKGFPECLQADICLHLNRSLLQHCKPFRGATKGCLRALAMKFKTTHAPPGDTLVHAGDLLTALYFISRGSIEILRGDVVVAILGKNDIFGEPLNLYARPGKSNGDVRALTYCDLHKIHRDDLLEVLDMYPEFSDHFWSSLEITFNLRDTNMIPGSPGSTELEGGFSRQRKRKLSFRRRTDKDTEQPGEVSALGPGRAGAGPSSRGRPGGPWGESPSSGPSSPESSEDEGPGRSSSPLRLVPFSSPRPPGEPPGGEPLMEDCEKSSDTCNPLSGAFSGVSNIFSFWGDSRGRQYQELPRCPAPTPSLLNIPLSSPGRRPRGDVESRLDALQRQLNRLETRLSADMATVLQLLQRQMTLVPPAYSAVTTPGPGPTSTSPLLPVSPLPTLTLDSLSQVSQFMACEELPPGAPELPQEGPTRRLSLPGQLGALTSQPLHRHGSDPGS

Compound | hERG current change (%, negative = inhibition) at 1uM [%]
COc1ccc(NC(=O)CNC(c2ccccc2)c2ccccc2)cc1Cl | 16.6
COc1ccc(Nc2nc3ccc(C)cc3cc2C#N)c(OC)c1 | 4.78
COc1cccc(C(=O)N2CCN(C3CCC(c4ccccc4)CC3)CC2)c1OC.O=C(O)C(=O)O (stereo not shown) | 3.34
CC1=NN(c2ccccc2)C(=O)C1N=Nc1cccc(O)c1 (stereo not shown) | 12.9
Cc1ccsc1/C=N/NC(=O)c1nnn(-c2nonc2N)c1-c1ccc2c(c1)OCO2 | 0.197
Cc1ccc(C)n1-c1ccc(C(=O)NCc2cccnc2)cc1 | 10.2
Cc1ccc(C)c(OCCC(=O)N2CCN(S(=O)(=O)c3cc(C)ccc3C)CC2)c1 | 12.2
O=C(COc1nncc2ccccc12)Nc1ccc(Br)cc1F | 14.5
CCOC(=O)CC(=O)CSc1nc(-c2cccnc2)cc(C)c1C#N | 1.05
COC(=O)c1cc(OC)c(OC)cc1NC(=S)N1CCCC1 | 10.4
CCOC(=O)c1c(-c2ccc(Cl)cc2)cn2ccccc12 | 8.58
COc1ccccc1CC(=O)Nc1ccon1 | 10.6
O=C(CCC(=O)N1CCN(Cc2ccc(F)cc2)CC1)Nc1nnc(C(F)(F)F)s1 | 9.26
CC1Oc2ccccc2N(CC(=O)NCc2ccc3c(c2)OCO3)C1=O (stereo not shown) | 14.5
CC1CC(C)CN(CCOc2ccccc2-c2ccccc2)C1.O=C(O)C(=O)O (stereo not shown) | -7.35
Cc1cc(C)n(-c2nc(NCCCN(C)C)c3c4c(sc3n2)COC(C)(C)C4)n1 | 3.82
CCC(C(=O)N1CCOCC1)n1c(C(=O)OC)cc2occc21 (stereo not shown) | 14.9
Cc1ccc(-c2cc(C(=O)N/N=C/c3cccnc3)n[nH]2)o1 | 9.21
COc1ccc(OCCC(=O)OCC(=O)NCc2ccccc2)cc1 | 13.3
O=C(CSc1nc2[nH]ncc2c(=O)[nH]1)Nc1ccc(OC(F)(F)F)cc1 | 14.4
COc1cc([N+](=O)[O-])cc(/C=N\NC(=O)C2COc3ccccc3O2)c1O (stereo not shown) | 8.58
COc1ccc(-c2noc(CN(Cc3nccn3C)C(C)C)n2)cc1 | 8.87

Compound | hERG current change (%, negative = inhibition) at 1uM [%]
C/C(=N\NC(=O)CC#N)c1cc2ccc(O)cc2oc1=O | 9.26
N#CSCC(=O)c1cccc2ccccc12 | 11.3
COc1ccc(C(=O)Nc2nnc(C3=COCCO3)o2)cc1 | 13.3
Cc1cc(C(=O)NCc2ccco2)c2ccccc2n1 | 2.67
Cc1cc(C(=O)N/N=C/c2ccc(N(C)C)o2)cs1 | 9.57
CC(=O)Nc1ccc(NC(=O)C(C)OC(=O)CNC(=O)c2sc3ccccc3c2Cl)cc1 (stereo not shown) | 19.7
Cc1ccc(-c2ccc(=O)n(CC(=O)N3CCN(c4cccc(C)c4)C(C)C3)n2)cc1 (stereo not shown) | 4.26
CCOc1ccc(C(=O)NNC(=O)c2cc(C)oc2C)cc1 | 12.6
Cc1ccc(-c2csc3nc(C)n(-n4c(C)ccc4C)c(=O)c23)o1 | 13.9
Cc1nn(C)c(C)c1CCC(=O)NC1CC(C)(C)Cc2c1cnn2-c1ccccc1 (stereo not shown) | -8.83
Cc1ccc(NC(=O)CCN2C(=O)OC(C)(C)C2(C)O)cc1 (stereo not shown) | 13
COc1ccc(-n2nnnc2SC(C)C(=O)NC2CCCC2)cc1 (stereo not shown) | 11.8
CCCC(=O)N1CCN(c2ccc(NC(=O)c3cc4ccccc4o3)cc2Cl)CC1 | -16.2
COc1cc(C(=O)N/N=C(\C)c2ccc(NC(=O)Cc3ccccc3)cc2)ccc1O | 22.4
COC(=O)c1cc(Cl)c(NC(=O)C(C)C)cc1OC | 8.28
S=C(NCc1ccccc1)NCc1ccc2c(c1)OCO2 | 4.21
COc1ccc(OC)c(NC(=O)COC(=O)c2ccc(S(=O)(=O)N3CCOCC3)cc2)c1 | -2.63
Cc1cc(=O)oc2cc(OCC(=O)Nc3ccccc3C(N)=O)c(Cl)cc12 | 12.2
CC(C)(C)C1CCC(OC(=O)c2cncc(Br)c2)CC1 (stereo not shown) | 16.5
CCc1noc(C)c1C(=O)N1CC(C)OC(C)C1 (stereo not shown) | 12.5
CC(C)c1ccc(CN(C(=O)C2COc3ccccc3O2)C2CCS(=O)(=O)C2)cc1 (stereo not shown) | 8.41
CCOc1ccc(OCCOc2ncnc3ccccc23)cc1 | 7.05

Compound | hERG current change (%, negative = inhibition) at 1uM [%]
O=C(NCc1ccccc1)C(=O)Nc1nc(-c2ccccc2)cs1 | 10.9
Cc1oc2cc(O)ccc2c(=O)c1-c1cnn(-c2ccccc2)c1 | 14.4
Cc1ccc(S(=O)(=O)N2CCCCC2CCNC(=O)C(=O)NC2CC2)cc1 (stereo not shown) | -1.28
Cc1cc(C(=O)N2CCCC(C(=O)c3ccc(Cl)cc3C)C2)no1 (stereo not shown) | 4.44
O=C(CCCc1ccccc1)c1ccc2c(c1)OCCO2 | 7.04
Cc1nc(-c2ccc(F)cc2)c(CC(=O)N(C)CC(=O)Nc2ccccc2Br)s1 | 9.94
COc1ccccc1C(=O)N1CCN(Cc2cccnc2)CC1.O=C(O)C(=O)O | 11.6
O=C(N/N=C/c1ccc2cccc(OCc3ccccc3)c2n1)c1ccc(Cl)cc1 | 11.1
S=C(c1ccc(-c2ccc(Cl)cc2Cl)o1)N1CCCCC1 | 12.1
Cc1cc(C(=O)N/N=C/c2ccc(Cl)c([N+](=O)[O-])c2)c(C)n1-c1ccc(F)cc1 | -1.26
Cc1ccc(NC(=O)COc2ccccc2C(=O)NCCN(C)C)cc1 | -0.314
CC1(C)CC(NC(=O)C23CCC(C)(C2Br)C3(C)C)CC(C)(C)N1 (stereo not shown) | 2.73
O=C1N=C(N2CCN(c3ccccc3)CC2)SC1Cc1ccccc1 (stereo not shown) | -9.64
COc1ccc2nc(NC(=O)CSCc3c(C)noc3C)sc2c1 | 7.47
Cc1ccc(-n2c(N)c(C(=O)Nc3c(C)n(C)n(-c4ccccc4)c3=O)c3nc4ccccc4nc32)cc1 | 3.38
COc1ccc(NC(=O)c2cccc(N3C(=O)C4C5C=CC(C6CC56)C4C3=O)c2)c(OC)c1 (stereo not shown) | 3.14
COc1ccc(OCCCC(=O)Nc2ccc3c(c2)OCCO3)cc1 | 8.02
O=C(c1cccc2ccccc12)C1CCCN(C(=O)c2ccc(N3CCOCC3)cc2)C1 (stereo not shown) | 8.57
S=C(Nc1ccc(Cl)c(Cl)c1)N1CCOCC1 | 1.17
O=C(Nc1ccccc1Cl)c1cccc(NC(=O)C2CCCC2)c1 | 4.79
Cc1cccc(-c2n[nH]c(=S)n2/N=C/c2cccs2)c1 | 6.64
CCOC(=O)CNC(=O)C(NC(=O)C1CCC(C)CC1)C(C)CC (stereo not shown) | 6.54

Compound | hERG current change (%, negative = inhibition) at 1uM [%]
O=C1CC(c2ccccc2)=Nc2ccccc2N1 | 0.924
COc1ccc(OC)c(S(=O)(=O)NCCc2cn3ccsc3n2)c1 | 8.51
CCN1CCN(C(=S)c2ccc(-c3ccccc3)cc2)CC1 | 8.77
COC(=O)c1cc(O)c(OCc2ccccc2)c(O)c1 | 15.6
COc1ccc(CN2C(=O)c3cccnc3C2Nc2cc(Cl)c(OC)cc2OC)cc1 (stereo not shown) | 10.2
CN(NC1OC(=O)c2ccccc21)c1c([N+](=O)[O-])cc(C(F)(F)F)cc1[N+](=O)[O-] (stereo not shown) | 9.73
COCCn1nnnc1C(c1ccccc1OC)N1CCN(c2ccccc2F)CC1.Cl (stereo not shown) | -2.23
Cc1cc(C)c(C)c(S(=O)(=O)N2CCN(C(=O)c3ccc4c(=O)n5c(nc4c3)CCC5)CC2)c1C | 4.77
Cc1c(NC(=O)Nc2ccccc2C(F)(F)F)c(=O)n(-c2ccccc2)n1C | 15.9
COc1cc(OC)cc(C(=O)OCC(=O)Nc2cccc(C(C)=O)c2)c1 | 4.13
C/C(=N\O)C1(C)N(O)C(C)(C)C(c2ccco2)=[N+]1[O-] (stereo not shown) | 16.9
CCOc1ccc(NC(=O)c2ccc3c(c2)N(Cc2ccc(F)cc2)C(=O)CS3=O)cc1 (stereo not shown) | 9.04
CCC(=O)c1cc2c(C)cc(=O)oc2c(C)c1OC | 8.31
Cc1ccc(Cl)c(OCC(=O)N(C)CC(=O)Nc2ccc(N3CCOCC3)cc2)c1 | 8.83
Cc1cccn2c(=O)c(C=O)c(N3CCC4(CC3)OCCO4)nc12 | 8.96
Cc1ccc(C(C)C)c(OCc2nnc(SCC(=O)Nc3nccs3)n2C)c1 | 5.57
CC(=O)N1N=C(c2ccco2)CC1c1ccc(C)cc1 (stereo not shown) | 10.4
COC(=O)c1cc(C(=O)Nc2nc3ccccc3[nH]2)cc([N+](=O)[O-])c1 | 14
CCC(=O)N1CCc2cc(Br)cc(S(=O)(=O)N3CCC(C(=O)NCCCOC(C)C)CC3)c21 | 14.4
O=c1[nH]c(O)c(N=Nc2cc(C(F)(F)F)ccc2Cl)c(=O)[nH]1 | 11.8
O=C(O)Cc1ccc(NC(=O)c2ccc(Cl)c(Cl)c2)cc1 | 14.6
Cc1ccc(C(=O)NNC(=O)C2CC2)cc1Br | 16.8
